Laboratory results taken from the supplement of paper PMC11417369.
± gives the standard deviation of the averaged measurements. This is one part of the list.

Each sequence was assayed on PfAP2-LT AP2 domain (GST-tagged) (assay: gcPBM binding intensity (ln(normalized median fluorescence intensity)); higher = stronger DNA binding).
Outline: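 Binding intensity is defined as the maximum Masliner-normalised natural-log median intensity across replicate spots for either probe orientation. It was measured on an Agilent 4 × 180k array of primer-extended double-stranded 36-bp intergenic genomic probes and negative controls, to which GST-tagged P. falciparum DNA-binding domains made in E. coli were applied for 1 h in 1× PBS with 1% milk, 0.2 mg/ml BSA, 0.5% salmon testes DNA and 0.03% Triton X-100. Detection was by Alexa488 anti-GST antibody and scanning at 488 nm.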

| Sequence | gcPBM binding intensity (ln) |
| --- | --- |
| CTATTTATTTTTGATGCATGCCAAATATAGAAAAAA [TGCATGCA_site368] | 8.44 ± 0.38 |
| CGTATAAATATACGTGCATGTAACTTTTTCTATATT [TGCATGCA_site981] | 8.84 ± 0.45 |
| TGACTGTAGATATTTTGTACATAACCTAATATATAT [XGTACX_site970] | 8.73 ± 0.4 |
| ATAATATAATACGAAGGTACACATTTTCTTAATATA [XGTACX_site7947] | 8.77 ± 0.52 |
| TACAGTTCAATGAAGGTGCAATTAATATATAAAATA | 8.77 ± 0.46 |
| TTTTTTTTTTTTTTTTGTACACATAATATGAATAAT [XGTACX_site2661] | 8.57 ± 0.32 |
| ATAACATATATATATACACACACATATATATATGAA [CACACA_site7983] | 9.28 ± 0.24 |
| TTATGTACAATTTCTTCTTTCTTTTTTCCTAAAGAC [CACACA_negctrl_site1193] | 8.52 ± 0.49 |
| TTTTTTTTTCTTTTCAAACACACAATTGGTATATAT [CACACA_site3321] | 8.88 ± 0.46 |
| ATATTTTTATTAGTAGTGCAATTTAGTGTATATATA [GTGCAC_site9542] | 8.68 ± 0.41 |
| TCATTTCACAGACACACACACACAATATATTTCCTT [CACACA_site9295] | 9.92 ± 0.42 |
| AAAAAAAAAATTAAAACATGCATAAATAAATATATT [TGCATGCA_site866] | 8.74 ± 0.45 |
| TATGTGTAATATTTTTGTACAGAAAAAAAAAAAAAA [XGTACX_site7075] | 8.54 ± 0.41 |
| AAAAAAAAAAAAAACACACACATGCACATCATATTA [CACACA_site4467] | 9.29 ± 0.28 |
| TATTACTATGTTATAACTTTTTTAAACGTGATCATA [TGCATGCA_negctrl_site128] | 8.56 ± 0.31 |
| TATTTAAAAAGAAAAAAAAAAAAAAAAATACATATA [CACACA_negctrl_site164] | 8.31 ± 0.52 |
| AAAAAAAAAAAATATACACACTAATATATTTTTTTA [CACACA_site4604] | 8.59 ± 0.5 |
| TATTAAATTTATCGGAGTACATTTAAATGTATATAC [XGTACX_site7975] | 8.69 ± 0.3 |
| ATATACTTATATATTGCACACATCTAATATTTTGAA [CACACA_site3165] | 9.01 ± 0.25 |
| TATAATATGTTTGATGGTACACGTAAACACCTTGCA [XGTACX_site1643] | 8.76 ± 0.49 |
| ATAACTAAATTATATTGTACAAAATAATTATATATT [XGTACX_site1188] | 8.65 ± 0.29 |
| CATATCAAAAAAAAATGTACACGTATATACAATACA [XGTACX_site2660] | 8.86 ± 0.51 |

| Sequence | gcPBM binding intensity (ln) |
| --- | --- |
| TATTATATATATAAATGTACATATTATTTTTCTTTT [XGTACX_site8670] | 8.59 ± 0.51 |
| GTATTTTTTTTCTTTTGTACATATATATAAAGAATA [XGTACX_site4569] | 8.55 ± 0.38 |
| AAGAATTTTCGATTTGCACACATTTGTAAAATAAAA [CACACA_site2354] | 8.74 ± 0.38 |
| ATACACGTTTTACAATGTACAGAAAGTATACATAAT [XGTACX_site4585] | 8.98 ± 0.49 |
| TTTAATCAACAAAATCTACACACTAATATGAAATAT [CACACA_site9250] | 8.71 ± 0.39 |
| TAATACTTAATGAACACATGCACATATACATAGTAT [TGCATGCA_site496] | 8.82 ± 0.47 |
| TGTTTCTAAGAATTTACACACAAAATATTTCTACAT [CACACA_site7846] | 9.02 ± 0.45 |
| AAAAAAAAAAATTGCACACAAAAAAAAAAAAAAAAA [CACACA_site2073] | 8.73 ± 0.64 |
| TTAAAAATTAAAAGTAGTACATATAATATAAACATT [XGTACX_site424] | 8.63 ± 0.4 |
| TTTTTTTTTTTTTTTTGTACATATATATAAAAAATA [XGTACX_site2772] | 8.12 ± 0.39 |
| AATTATACTCACGTTACACACACACTAGATATATAT [CACACA_site6133] | 9.67 ± 0.27 |
| TAATATTACATTTATTGTACTTTGTTTTTATTTTAT [XGTACX_site1605] | 9.27 ± 0.45 |
| ATTGAAAAAATACAATGTACATAGTAATACAAAGAA [XGTACX_site4142] | 9.18 ± 0.42 |
| CCCACAATGGTTTATATACACACTGTTGCAAATTCT [CACACA_site3066] | 8.93 ± 0.36 |
| TTTATTCTAAAATATTAAAAATGATTTGTTTTTTCA [CACACA_negctrl_site1751] | 8.05 ± 0.42 |
| TTATAAAAAAAAAAAAAAAAAAAAACCAATATAATA [CACACA_negctrl_site968] | 8.31 ± 0.63 |
| ATATGAACATTAAAAAAGTAAGGTATTCTCCCCTCT [CACACA_negctrl_site1299] | 8.72 ± 0.32 |
| GTATTATAAAAAGGAAGTACATATATACATATTATA [XGTACX_site1271] | 8.77 ± 0.39 |
| CTTAAATCCATAATATGTACTTAAAAAGAAAAAATA [XGTACX_site4765] | 8.24 ± 0.47 |
| ATAATTATACAAAAGCGTACACGATATAAATCTACG [XGTACX_site8115] | 8.79 ± 0.45 |
| AGACAATTTTTTAGTACACACATATAGATATATAAA [CACACA_site6832] | 8.75 ± 0.42 |
| ATGTGATAATTTAGGAGTACTGTCATAAGCATTTCT [XGTACX_site3091] | 8.76 ± 0.4 |
